# Measured values reported in PubChem BioAssay (NCI).
# Where a structure was tested more than once in an assay, its records may differ in their call.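 Treatment: one concentration, 48 hours, 96-well format. Scoring: percent growth, with anything below 10 considered active.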 Not every entry of the source has a single result; some have several. They are shown here; other results are not. The source may hold further records. These are repeated runs of one drug, at its own concentration, as given; one value stands for one run. Additions like (4×) count equal records among those shown.
# Test system: A498 renal
# Assay: NCI-60 one-dose screen, 48 h (100 = growth as untreated, 0 = no growth, -100 = all killed)
smiles,measurement,setting,value
COc1cccc2c1C(=O)c1c(O)c3c(c(O)c1C2=O)C[C@@](O)(C(=O)CO)C[C@@H]3OC1CC(N)C(O)C(C)O1 (stereo not given in full),growth,"0.25 µM, runs of 2012","inactive: 54.3, 22.6, 51.1, 50.7, 28.4, 25.4, 46.2 (2×), 53.7, 38.3, 45.1, 46, 60.8, 45.6, 12.2, 15.7, 15, 30.7, 25.8, 17.2, 20.9, 23.9 (2×), 39.4, 38.1, 49.9, 47.4, 45.7, 52.3, 60.9, 49.4 (2×), 42.2, 63.6, 61.5, 52.5 (2×), 51.2, 44.4, 39.8, 40.4, 49.1 (2×), 45.4, 48.5, 53.8, 38.5, 42.6, 59.9 (2×), 57.7, 58.4, 65.1, 59.7, 59.3, 78.4, 59.6, 67.4, 61.8, 70.8, 31.5, 52.4, 47.9, 46.3, 44.8, 48.7, 53.6, 32.8, 27.1, 42.5, 49.3, 33, 10%"
same,growth,"0.25 µM, runs of 2013","inactive: 34.8, 42.5, 45.3, 51.2, 26.3, 14.9, 55.4, 56.3, 56.1, 58.7, 45.2, 47.4, 23.9, 47.2 (2×), 49.8, 44, 41.5 (2×), 26.8, 46.7, 44.3 (3×), 61.5, 56, 48, 50.5, 42.3, 45.4 (2×), 50.2, 43.3, 46.4, 46.6, 53, 46, 45.5 (2×), 47.8, 57.5, 54.3, 45.8, 43, 49.1, 40, 42.9, 40.9, 51.1, 38.5, 33.4, 49.3, 49.6, 50.7, 44.5, 55.7, 50.4, 34.2, 22.8 (2×), 19.3, 14.6, 32.5, 28.6, 16.1, 28.9, 22.4, 30.9, 23.6, 19.4, 39.2, 35.1, 34.9, 19.7, 27.2, 20.6, 37.5, 12.5, 34.6% and active: 7.66%"
same,growth,"0.25 µM, runs of 2014","inactive: 14.5, 41, 36.7, 43.2, 47.9, 41.1 (2×), 33.7, 40.5 (2×), 36.8, 46.3, 40.7, 44.5, 42, 40.8, 21, 26.1, 28, 26.9, 16.3, 26.4, 40.1, 34.1, 32.9, 36.1, 45.2, 48.2, 39.7, 41.2 (2×), 40.3, 43.4, 38.7, 48.3, 43, 37.8, 39.6, 45.5 (2×), 41.6, 37.5, 44.4, 48.4, 38.8, 39.4, 49.9, 40.9, 44.1, 65.2, 52.7, 66, 51.3, 40.6, 41.9, 64.5, 50.2 (2×), 51.7, 53.7 (2×), 47.3, 52.1, 42.9, 39.8, 40.4, 44.7, 56.5, 51.6, 53.8, 54.2, 35.7, 37.3, 63.9, 76.7, 56.9, 77.8% and active: 8.9%, 2.52%, -4.4%"
same,growth,"0.25 µM, runs of 2015","inactive: 66.7, 55.3, 44.2, 46.3, 36.5 (2×), 34.9 (2×), 37.7, 43.8, 35.1, 20.4, 19.5, 48.5, 57.4 (2×), 53.7, 42.2 (2×), 43.2, 47.8 (2×), 11.8, 24.2 (2×), 35.6, 39.7, 53.1 (2×), 56, 51.1, 47.7 (2×), 31.8, 38.8, 22, 27.7, 33, 26.5, 38.6, 41.6, 36.1, 30.8, 51.2, 26.4, 48.2, 43.5, 32.2, 61.1, 38.1, 44.4, 32.4, 44.5, 34.5, 59.6, 54.5, 56.3, 57.2, 61.7, 47.4, 45.9, 40, 38.9, 45.4, 47.5, 26.1, 36, 25.2, 40.8, 50.5, 48.8, 28, 39.9, 55.8, 59.1, 52.6, 58.3, 55.4% and active: 4.87%, 7.81%, 3.51%"
same,growth,"0.25 µM, runs of 2016","inactive: 50.9 (2×), 51.8, 53.5, 62.1, 58.9 (2×), 56.6 (2×), 39.4, 31.4, 33.6, 33.3, 29.1, 24.1, 53.3, 48.6, 36.3, 34.1, 53, 58.1, 25.5, 26, 59, 55.8, 44.7 (2×), 43.1, 55.9 (2×), 52, 54.8, 58.8 (2×), 40, 45.1, 34.7, 26.8, 59.1, 57.6, 42.3, 42.2, 47.7, 46.8, 44.9, 49.3, 49.2, 44.4, 51, 44.5 (2×), 59.7 (2×), 54.2, 46.3, 46, 55.1, 48.5, 65.3, 61.6, 57.1, 57.9, 58.7, 72.6, 62.3, 71.9, 63.7, 58.6, 62.5 (2×), 57.3, 60, 52.1, 45.7, 69.2, 60.5, 47.4, 57.7, 61.2, 68.5, 72.5, 61.5, 63.4, 67, 67.4, 69.9%"
same,growth,"0.25 µM, runs of 2017","inactive: 69.5, 63.6 (2×), 54.8 (2×), 58.1 (2×), 56.8, 47.4, 54.4, 43, 41.7, 40.5, 52.4 (3×), 47.3, 41.6, 52.1 (3×), 49, 49.8, 51.8, 47.1, 45.8, 58.8, 47.8 (2×), 49.2, 50.4, 46.9, 60.9, 53.3, 44.9, 42.6, 43.1, 54.2, 57.6, 40.4, 46 (2×), 51.5 (4×), 46.8, 59, 53.2, 56.1, 54.3, 53.9, 62.6, 65.1, 52.2, 44.8, 56.9, 43.7, 47.9 (2×), 48.6, 48.9, 49.3, 53.5, 47.5, 51.1, 62.7, 45.4, 41.3, 55, 55.8, 50.5, 67.6, 50, 50.7, 45.2, 47.7, 25.8, 32.5%"
same,growth,"0.25 µM, runs of 2018","inactive: 47.6, 44.8, 34.8, 31, 43.9, 41.6, 42.9, 45.2, 54.5 (2×), 45.1, 50.9, 43.3, 56.3 (2×), 40.8, 46.9, 51.8, 54.3, 46.8, 38.3 (2×), 29.3, 33, 42, 48.2, 39.3, 40.3, 30.4, 13.3, 30.9, 36.8, 60.6, 60.7, 31.3, 34.1, 32.2, 31.2, 38.1, 35.6 (2×), 37.4, 52, 42.8, 43.5, 40.5, 40.9, 38.9, 44.3, 35.5, 15.1, 22.9, 35.1, 10.2% and active: 4.33%"
same,growth,"0.25 µM, runs of 2019","inactive: 13.3, 22.8, 27, 10.2, 39, 18.6, 18.1 (2×), 21.4, 25.3, 30.8 (3×), 11.2, 38.9, 43.1, 46.4, 28.9, 33.9, 10.8, 83.4, 15.7, 24.6, 23.3, 25.9, 23.7, 24.3, 35.8, 40.9, 40.8, 26.7, 25.5, 39.5, 32.5, 45.8, 45.7% and active: -10.7, 5.99, -0.171, -3.4, 5.56%"
same,growth,"0.25 µM, runs of 2020","inactive: 18.2, 32.6, 36.3, 35.5, 22.1, 24.1, 21.8, 38.4, 41.2, 35.9, 27.9, 33.8, 29.1, 48.1, 32.4, 38.7, 37.5, 50, 46, 54.4, 23% and active: 9.76%, 9.08%, 4.32%"
same,growth,"0.25 µM, runs of 2021","inactive: 33, 47.8, 31.3, 37.5, 42.8, 52.5, 31.4, 34.3, 39.1, 42.1, 35.2, 33.8, 40.6, 33.3, 32.8, 37.3, 46.3, 35.3, 22.1, 21.5, 33.6, 29.5, 40.9, 19.2, 20, 26.2, 31, 20.8 (2×), 22.9 (2×), 23.5, 20.6, 15.9, 16.5, 18, 74.8, 31.8, 35.5, 63.7, 38.8, 32.5, 75.1, 75.2, 59.4, 71.5, 63.4, 71.7, 67, 62.6, 69.4%"
same,growth,"0.25 µM, runs of 2022","inactive: 52.4, 53.6, 63.6, 79.3, 55.6, 60.3, 81.5, 86.7, 65.2, 67.8, 75, 59.6, 67.7 (2×), 81.4, 66.3, 54.6, 77.2, 83.2, 55.3, 79.7, 80.8, 71.8, 80.3, 69.6% and active: 7.64%"
same,growth,"25 µM, runs of 1991","active: -64.6, -82.7, -82.1, -95.8, -87.5, -91.6, -57.8, -62.7, -71.7, -83.9, -77.1, -54.2, -44.2, -72.9, -81.4, -38.7, -47.2, -72.6%"
same,growth,"25 µM, runs of 1992","active: -90.5, -53.1, -65.3, -61.5, -14.8, -80.1, -72.1 (2×), -81.6 (2×), -90.2, -62.3, -54.4, -61.3, -69.4 (2×), -77, -80.4 (2×), -85.7, -80.3, -81.3, -63.7, -67.5, -86.4, -78.4, -51.2, -23.8, -45, -79.3, -62.8, -87.2, -69.5, -78.7, -77.3, -88.9, -90.6, -73.1, -83.7, -35.7, -74.2, -67.8, -74.3, -68.8, -63.6, -65, -82.2, -50.8, -66.9, -84.3, -52.8, -62.6 (2×), -52.3, -63.3, -74.8 (2×), -68.9, -87.6 (2×), -84, -57.4, -81.5, -72.9, -78.2, -43.8, -56, -47, -47.1, -84.2 (2×), -85.6, -82.1, -74.6, -69.2, -77.2, -63, -80.2, -79.4, -86.5, -83.6, -89.6, -82.6 (2×), -72.5, -77.6 (2×), -86, -87.5, -75.9, -70.1, -83.3, -69.1, -80.6, -73.5, -77.9, -65.2, -10.2, -55.5, -79.7%"
same,growth,"25 µM, runs of 1993","active: -52.6, -70.1, -65.8 (2×), -38.4, -63.9, -89.3, -76.9, -60.4, -72.3, -74.1, -64.8, -11.7, -60.7, -31.9, -55.3, -67.9, -52.1, -58.6, -76.6, -60.8, -69.1, -83.1, -68.1, -91 (2×), -54.9, -70.7, -86.4, -92.7, -83.5, -41.7, -87.2, -81.3%"
same,growth,"25 µM, runs of 1994","active: -54.1, -94.2, -80.5, -80, -87.8, -57.6, -92.2, -83.9, -87.5, -69.3, -84, -44.8, -49.7, -86.9, -76.5, -82.7, -86.2, -74.7, -45.5, -69.1, -72.3, -45.4, -36.5, -22.7, -25.7, -73.6% and inactive: 63.2%"
